The least precise scores are not listed. The source holds two more conditions with little spread; they are left out. Names with del lack the residues named; names with ins carry added residues between the positions named. For some of these results: The concentration of ogerin is not given here.
B1: GPR68, Q15743 (parent)
chain: MGNITADNSSMSCTIDHTIHQTLAPVVYVTVLVVGFPANCLSLYFGYLQIKARNELGVYLCNLTVADLFYICSLPFWLQYVLQHDNWSHGDLSCQVCGILLYENIYISVGFLCCISVDRYLAVAHPFRFHQFRTLKAAVGVSVVIWAKELLTSIYFLMHEEVIEDENQHRVCFEHYPIQAWQRAINYYRFLVGFLFPICLLLASYQGILRAVRRSHGTQKSRKDQIQRLVLSTVVIFLACFLPYHVLLLVRSVWEASCDFAKGVFNAYHFSLLLTSFNCVADPVLYCFVSETTHRDLARLRGACLAFLTCSRTGRAREAYPLGAPEASGKSGAQGEEPELLTKLHPAFQTPNSPGSGGFPTGRLA

How the values were obtained:
[1] = variants of: B1; test: cAMP reporter score (Enrich2 score, wild type = 0); higher = more signal; HEK293T, FACS bins
[2] = variants of: B1; test: surface expression score (Enrich2 score, wild type = 0); higher = more signal; HEK293T, FACS bins

Variant | cAMP reporter score ([1]; pH 5.5) | cAMP reporter score ([1]; pH 6) | cAMP reporter score ([1]; pH 6, modulator: ogerin) | cAMP reporter score ([1]; pH 6.5, modulator: ogerin) | surface expression score [2]
L78Y | -0.667 | -0.559 | -1.15 | -0.718 | 0.348
L78_Q79insG | -1.27 | -1.12 | -1.66 | -0.126 | -0.469
L78_Q79insGS | -0.735 | -1.03 | -1.59 | -1.09 | -1.12
L78_Q79insGSG | -1.02 | -1.79 | – | – | -1.96
Q79_V81del | -0.804 | 0.749 | -0.781 | -0.756 | 1.9
Y80A | -0.865 | -0.765 | – | -1.15 | 0.788
Y80C | -0.762 | -0.371 | -0.705 | -0.81 | -0.5
Y80D | -1.14 | -0.572 | -1.25 | -1.12 | -0.51
Y80E | -1.73 | -1.76 | -1.58 | -1.07 | 0
Y80F | -0.53 | 0.634 | -0.912 | -0.432 | -0.954
Y80G | -1.16 | -1.92 | -1.32 | -1.14 | -0.533
Y80H | -1.17 | -0.428 | -1.48 | -1.26 | 0.485
Y80I | -2.13 | -1.33 | -0.989 | -1.49 | -1.23
Y80K | -1.32 | -1.23 | -1.68 | -1.17 | 0.752
Y80L | -1.74 | -1.06 | -0.32 | -0.376 | -0.904
Y80M | -1.26 | -0.656 | -2.23 | -0.912 | 1.33
Y80N | -1.47 | -0.382 | -0.97 | -0.695 | 2.58
Y80P | -1.59 | -0.929 | -1.7 | -0.903 | -0.743
Y80Q | -1.68 | -1.02 | -3.42 | -2.15 | 0.302
Y80R | -0.871 | 0.014 | -1.26 | -0.868 | 1.1
Y80S | -1.62 | -1.47 | -1.99 | -1.64 | 0.205

Variant | cAMP reporter score ([1]; pH 5.5) | cAMP reporter score ([1]; pH 6) | cAMP reporter score ([1]; pH 6, modulator: ogerin) | cAMP reporter score ([1]; pH 6.5, modulator: ogerin) | surface expression score [2]
Y80T | -1.25 | -0.435 | -1.02 | -0.653 | 0.407
Y80V | -1.8 | -0.366 | -1.7 | -0.617 | -1.24
Y80W | -1.52 | -1.05 | -2.57 | -1.56 | -0.434
Y80_V81insG | -1.41 | -0.83 | -1.91 | -1.7 | -1.16
Y80del | -1.7 | -1.21 | -2.42 | -1.34 | -1.36
V81A | 0.375 | -0.363 | -0.126 | -0.56 | 0.464
V81C | -1.05 | -0.174 | -0.263 | -0.54 | 1.84
V81D | -0.256 | -0.032 | -0.859 | -0.697 | 0.503
V81E | -0.189 | -1.76 | – | – | 1.26
V81F | 0.066 | -0.021 | 0.203 | 0.816 | -0.312
V81G | -1.14 | -1.16 | -1.33 | -1.09 | 0.571
V81H | 1.62 | 3.85 | 1.27 | 3.26 | 0.312
V81I | -0.916 | -1.41 | -0.892 | -1.04 | 0.426
V81K | -0.327 | -0.31 | -0.219 | 0.131 | 1.91
V81L | -1.32 | -0.95 | -1.22 | -0.756 | -0.374
V81M | -0.842 | -1.01 | -1.41 | -1.63 | 1.06
V81N | -1.62 | -1.04 | -1.85 | -0.988 | -1.47
V81P | -1.28 | -0.854 | -1.71 | -0.277 | -1.19
V81Q | -0.573 | -0.181 | – | -0.46 | 1.53
V81S | -0.366 | -1.02 | -0.83 | -0.78 | 1.13
V81T | -0.925 | -1.09 | -1.66 | -1.12 | 0.476

Variant | cAMP reporter score ([1]; pH 5.5) | cAMP reporter score ([1]; pH 6) | cAMP reporter score ([1]; pH 6, modulator: ogerin) | cAMP reporter score ([1]; pH 6.5, modulator: ogerin) | surface expression score [2]
V81W | -1.63 | -0.846 | -0.978 | -0.596 | 0.635
V81Y | 0.178 | – | 0.303 | 2.29 | 0.317
V81_L82del | -1.29 | -1.23 | -1.68 | -1.54 | 0.251
V81del | -1.57 | -0.555 | -0.985 | -1.3 | 1.42
L82_Q83insGS | -1.65 | -1.58 | -1.82 | -1.03 | 0.907
L82_Q83insGSG | -1.66 | -0.96 | -1.76 | -1.48 | -0.29
L82del | -1.44 | -0.627 | -1.4 | -0.947 | 0.848
Q83_H84insG | -1.84 | -0.889 | -1.3 | -0.455 | 0.385
H84A | 0.364 | -1.22 | 0.136 | -0.589 | 1.16
H84C | -0.637 | – | -0.139 | – | -2.13
H84D | 0.301 | 3.85 | 1.01 | 3.52 | 1.7
H84E | 0.712 | 0.004 | 1.4 | – | 1.15
H84F | -0.396 | 0.082 | 0.09 | -0.58 | –
H84G | 0.302 | 0.947 | 0.708 | 1.01 | 0.861
H84I | -1.13 | -0.444 | -1.91 | -1.2 | -0.906
H84K | -0.162 | -1.31 | -0.933 | -1.19 | 0.597
H84L | -1.32 | -0.7 | -1.19 | -1.54 | -1.14
H84M | -0.292 | -0.54 | -0.921 | -1.05 | -0.666
H84N | -0.366 | – | -0.557 | 0.168 | -0.547
H84P | -2.07 | -0.954 | -2.3 | -1.12 | 1.67
